The chains are these.
B1: PhoQ; a variant is named by its letters at X, in order, P23837 (parent)
chain: MKKLLRLFFPLSLRVRFLLATAAVVLVLSLAYGMVALIGYSVSFDKTTFRLLRGESNLFYTLAKWENNKLHVELPENIDKQSPTMTLIYDENGQLLWAQRDVPWLMKMIQPDWLKSNGFHEIEADVNDTSLLLSGDHSIQQQLQEVREDDDDAEMTHSVAVNVYPATSRMPKLTIVVVDTIPVELKSSYMVWSWFIYVLSANLLLVIPLLWVAAWWSLRPIEALAKEVRELEEHNRELLNPATTRELTSLVRNLNRLLKSERERYDKYRTTLTDLTHSLKTPLXXLQXXLRSLRSEKMSVSDAEPVMLEQISRISQQIGYYLHRASMRGGTLLSRELHPVAPLLDNLTSALNKVYQRKGVNISLDISPEISFVGEQNDFVEVMGNVLDNACKYCLEFVEISARQTDEHLYIVVEDDGPGIPLSKREVIFDRGQRVDTLRPGQGVGLAVAREITEQYEGKIVAGESMLGGARMEVIFGRQHSAPKDE

The other results are listed elsewhere or left out.

Variants of B1 are the subject of the test. Nature of the test: enrichment ratio after two sorts for PhoP signalling (ratio (wild type AVST 3.29)); higher = more functional. The conditions noted are these: with PhoP (E. coli).
As to KKYM, the enrichment ratio was no more than 0.25.
Under DVKV stands no more than 0.25.
Regarding LFDC, the enrichment ratio was no more than 0.25.
Turning to WGVQ, the enrichment ratio was no more than 0.25.
As to QMRA, the enrichment ratio is no more than 0.25.
In the case of GCGH, the enrichment ratio was no more than 0.25.
Regarding MMLV, the enrichment ratio is no more than 0.25.
Under WCYM stands no more than 0.25.
As to TGTQ, the enrichment ratio amounted to 17.7.
In the case of KIQA it was no more than 0.25; in that of QHDF, 8.2.
In the case of WNNG it was no more than 0.25.
In the case of GRYV it was no more than 0.25; in that of DQKI, no more than 0.25; in that of LQRN, no more than 0.25.
As for QIEP, the enrichment ratio turned out to be 2.06.
Take PWPS: the enrichment ratio was no more than 0.25.
On to DYDA, for which the enrichment ratio was no more than 0.25.
Take LTQD: the enrichment ratio was no more than 0.25.
Under LVGV stands no more than 0.25.
For the variant RMRE, the enrichment ratio is no more than 0.25.
In the case of YIYK it was no more than 0.25.
In the case of LSHS it was no more than 0.25; in that of LWYW, no more than 0.25; in that of DEVS, no more than 0.25.
Take KHIE: the enrichment ratio was no more than 0.25.
As for AFAS, the enrichment ratio was no more than 0.25.
In the case of QWLH, the enrichment ratio was no more than 0.25.
Consider TMYA, for which the enrichment ratio was no more than 0.25.
As for SDDY, the enrichment ratio was no more than 0.25.
In the case of DCFQ it was no more than 0.25; in that of YKKT, no more than 0.25; in that of KCKN, no more than 0.25.
As to FAES, the enrichment ratio is no more than 0.25.
As for HLHD, the enrichment ratio is no more than 0.25.
Under VRHF stands no more than 0.25; under VWCA, no more than 0.25.
Under RCGI stands no more than 0.25; under SFNY, no more than 0.25; under QLYF, no more than 0.25.
Under TMFE stands no more than 0.25.
NIGY: the enrichment ratio is no more than 0.25.
In the case of HYIS it was no more than 0.25.
In the case of VIRQ, the enrichment ratio is no more than 0.25.
For the variant NQLV, the enrichment ratio was no more than 0.25.
Turning to QLTT, the enrichment ratio is no more than 0.25.
Under NKDW stands no more than 0.25.
Turning to MQMM, the enrichment ratio was no more than 0.25.
In the case of LVRE it was no more than 0.25; in that of VFHF, no more than 0.25; in that of PCIE, no more than 0.25.
In the case of IVRY it was no more than 0.25; in that of QFKQ, no more than 0.25; in that of DQEM, no more than 0.25.
Regarding TMGV, the enrichment ratio is 12.1.
With TEFK, the enrichment ratio amounted to 1.68.
Under EFIQ stands no more than 0.25; under YEHF, no more than 0.25; under QYRF, no more than 0.25.
Under NWKM stands no more than 0.25; under WGAN, no more than 0.25.
As to FSLM, the enrichment ratio is 19.2.
Under IGMV stands 7.79; under RLEI, no more than 0.25; under PNKW, no more than 0.25.
Under MDGL stands no more than 0.25.
Under EFPW stands no more than 0.25.
As for SMDQ, the enrichment ratio was no more than 0.25.
Take MRWA: the enrichment ratio is no more than 0.25.
In the case of QDAF it was no more than 0.25; in that of FSDN, no more than 0.25; in that of MKHV, no more than 0.25.
In the case of HQGH it was no more than 0.25; in that of ICMT, no more than 0.25; in that of RWNH, no more than 0.25.
In the case of FYCA, the enrichment ratio was no more than 0.25.
As to MGHL, the enrichment ratio was 19.3.
In the case of RTMC, the enrichment ratio was no more than 0.25.
In the case of GYVD it was no more than 0.25; in that of IGVW, no more than 0.25; in that of LERD, no more than 0.25.
As to KMRC, the enrichment ratio was no more than 0.25.
Under GDRK stands no more than 0.25.
In the case of SQWT, the enrichment ratio came out at 3.36.
DSSR: the enrichment ratio was no more than 0.25.
As for HNHN, the enrichment ratio was no more than 0.25.
For HWPY, the enrichment ratio is no more than 0.25.
In the case of HPWV it was no more than 0.25; in that of LGYK, no more than 0.25; in that of QTIV, no more than 0.25.
Consider NLDQ, for which the enrichment ratio is no more than 0.25.
Under RNLF stands no more than 0.25; under IEGP, no more than 0.25.
Under SMRE stands no more than 0.25; under QNQM, no more than 0.25.
Turning to FSRM, the enrichment ratio was no more than 0.25.
For the variant QFLS, the enrichment ratio is no more than 0.25.
In the case of ENAI it was no more than 0.25.
As to HDWC, the enrichment ratio was no more than 0.25.
As to QLHE, the enrichment ratio was no more than 0.25.
In the case of ATSV it was 12.7; in that of WTSF, no more than 0.25; in that of YQRC, no more than 0.25.
Under LKMR stands 0.996; under DCYR, no more than 0.25; under VHER, no more than 0.25.
Under NTAW stands no more than 0.25; under PFWT, no more than 0.25.
For the variant RGPY, the enrichment ratio was no more than 0.25.
Under AATK stands no more than 0.25; under QCRI, no more than 0.25.
Take PDLR: the enrichment ratio is no more than 0.25.
In the case of IFPE it was no more than 0.25.
Regarding DCRY, the enrichment ratio is no more than 0.25.
Turning to KIER, the enrichment ratio was no more than 0.25.
In the case of LDQQ it was no more than 0.25; in that of RYAY, no more than 0.25; in that of SKFA, no more than 0.25.
Turning to AIFD, the enrichment ratio is no more than 0.25.
ILEW: the enrichment ratio is no more than 0.25.
With FNYI, the enrichment ratio is no more than 0.25.
In the case of AMPQ it was no more than 0.25; in that of GVSE, no more than 0.25; in that of DDKT, no more than 0.25.
On to IYFY, for which the enrichment ratio is no more than 0.25.
For SHDN, the enrichment ratio was no more than 0.25.
For KQKP, the enrichment ratio is no more than 0.25.
As for ELYE, the enrichment ratio is no more than 0.25.
Under HDLE stands no more than 0.25; under MYNR, no more than 0.25.
In the case of FIFK it was no more than 0.25.
As for SHEH, the enrichment ratio was no more than 0.25.
In the case of IAFV it was no more than 0.25.
Under IHAH stands no more than 0.25; under TDQF, no more than 0.25; under HHKS, no more than 0.25.
For the variant RMNL, the enrichment ratio was no more than 0.25.
As to DCQI, the enrichment ratio was no more than 0.25.
Take DNVC: the enrichment ratio was no more than 0.25.
In the case of WCKP it was no more than 0.25; in that of SQEW, no more than 0.25; in that of LPHY, no more than 0.25.
Take DTDN: the enrichment ratio is no more than 0.25.
In the case of IGLQ, the enrichment ratio was 6.04.
Under PKTH stands no more than 0.25; under YVSS, 0.281; under MKKA, no more than 0.25.
With SQMS, the enrichment ratio is 17.9.
In the case of YWDR it was no more than 0.25; in that of YECK, no more than 0.25; in that of YFLV, no more than 0.25.
With DTDK, the enrichment ratio was no more than 0.25.
As for GGRG, the enrichment ratio was no more than 0.25.
In the case of QCHG it was no more than 0.25.
Under NHVR stands no more than 0.25.
In the case of LIRD, the enrichment ratio was no more than 0.25.
Under RNDS stands no more than 0.25; under MQES, no more than 0.25; under EFTL, 0.438.
For RFSL, the enrichment ratio was no more than 0.25.
In the case of LLYH it was no more than 0.25; in that of MNGQ, no more than 0.25; in that of KAGD, no more than 0.25.
Take LYAC: the enrichment ratio was no more than 0.25.
In the case of AQTF it was 4.1.
Under GYFH stands no more than 0.25.
In the case of KKGH it was no more than 0.25.
With GVTD, the enrichment ratio was no more than 0.25.
Under TIQG stands 9.15.
Under EHSR stands no more than 0.25; under PLWF, no more than 0.25; under ICTK, no more than 0.25.
Take TYPG: the enrichment ratio is no more than 0.25.
In the case of YRAH it was no more than 0.25.
Consider FWNR, for which the enrichment ratio is no more than 0.25.
Regarding VMRH, the enrichment ratio is no more than 0.25.
Under DLFM stands no more than 0.25.
Under QFSK stands no more than 0.25; under TRCN, 5.74; under RNFF, no more than 0.25.
In the case of ITMI it was 4.22; in that of RPCY, no more than 0.25; in that of RKVY, no more than 0.25.
On to ATLA, for which the enrichment ratio turned out to be 9.51.
In the case of IPFC it was no more than 0.25; in that of PPGI, no more than 0.25; in that of DGHG, no more than 0.25.
Under QHMW stands no more than 0.25.
Under TQEP stands no more than 0.25; under INPP, no more than 0.25; under EGEY, no more than 0.25.
Regarding RDLI, the enrichment ratio was no more than 0.25.
In the case of KVYI, the enrichment ratio is no more than 0.25.
In the case of SRGR, the enrichment ratio is no more than 0.25.
In the case of LAFW it was no more than 0.25.

For the origin of these results see a collection of fitness landscapes (doi:10.1126/science.1257360).
